Values joined by “and” are separate entries in the source; they are usually repeats but may differ in a detail not shown here. Identical values can stand only once. Like-named read-outs stand apart in the source and are kept apart here.
Legend:
[1] = target: PF-7802-labelled proteins in ARPE-19 cells (Homo sapiens, UniProt O00159); conditions: for Median SILAC Ratio (Heavy/Light): protein MYO1C Unconventional myosin-Ic (O00159), replicates in separate columns
[2] = target: PF-7802-labelled proteins in ARPE-19 cells (Homo sapiens, UniProt P08729); conditions: protein KRT7 Keratin, type II cytoskeletal 7 (P08729); one column per replicate
[3] = target: PF-7802-labelled proteins in ARPE-19 cells (Homo sapiens, UniProt P09382); conditions: protein LGALS1 Galectin-1 (P09382); replicates in separate columns
[4] = target: PF-7802-labelled proteins in ARPE-19 cells (Homo sapiens, UniProt P11177); conditions: protein PDHB Pyruvate dehydrogenase E1 component subunit beta, mitochondrial (P11177); replicates in separate columns
[5] = target: PF-7802-labelled proteins in ARPE-19 cells (Homo sapiens, UniProt P12956); conditions: for Median SILAC Ratio (Heavy/Light): protein XRCC6 X-ray repair cross-complementing protein 6 (P12956)
[6] = target: PF-7802-labelled proteins in ARPE-19 cells (Homo sapiens, UniProt P14314); conditions: protein PRKCSH Glucosidase 2 subunit beta, P14314
[7] = target: PF-7802-labelled proteins in ARPE-19 cells (Homo sapiens, UniProt P29144); conditions: TPP2 Tripeptidyl-peptidase 2 (P29144)
[8] = target: PF-7802-labelled proteins in ARPE-19 cells (Homo sapiens, UniProt P30050); conditions: protein RPL12 60S ribosomal protein L12, P30050
[9] = target: PF-7802-labelled proteins in ARPE-19 cells (Homo sapiens, UniProt P30559); conditions: replicates in separate columns
[10] = target: PF-7802-labelled proteins in ARPE-19 cells (Homo sapiens, UniProt P39023); conditions: protein RPL3 60S ribosomal protein L3, P39023
[11] = target: PF-7802-labelled proteins in ARPE-19 cells (Homo sapiens, UniProt P46940); conditions: for Median SILAC Ratio (Heavy/Light): protein IQGAP1 Ras GTPase-activating-like protein IQGAP1 (P46940), one column per replicate
[12] = target: PF-7802-labelled proteins in ARPE-19 cells (Homo sapiens, UniProt P48735); conditions: protein IDH2 Isocitrate dehydrogenase [NADP], mitochondrial (P48735); one column per replicate
[13] = target: T1, PF-7802-labelled proteins in ARPE-19 cells (Homo sapiens, UniProt P62258); conditions: for Median SILAC Ratio (Heavy/Light): protein YWHAE 14-3-3 protein epsilon (P62258)
T1 sequence (P62258 1-255): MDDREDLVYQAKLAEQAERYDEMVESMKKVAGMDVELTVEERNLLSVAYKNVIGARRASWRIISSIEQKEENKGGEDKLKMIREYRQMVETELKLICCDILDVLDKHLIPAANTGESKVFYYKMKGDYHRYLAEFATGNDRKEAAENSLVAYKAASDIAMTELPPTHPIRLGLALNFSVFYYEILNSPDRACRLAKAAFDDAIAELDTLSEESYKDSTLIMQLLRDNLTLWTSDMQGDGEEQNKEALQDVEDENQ

[14] = target: PF-7802-labelled proteins in ARPE-19 cells (Homo sapiens, UniProt P62834); conditions: protein RAP1A Ras-related protein Rap-1A, P62834
[15] = target: T2, PF-7802-labelled proteins in ARPE-19 cells (Homo sapiens, UniProt P78371); conditions: for Median SILAC Ratio (Heavy/Light): protein CCT2 T-complex protein 1 subunit beta (P78371)
T2 sequence (P78371 1-535): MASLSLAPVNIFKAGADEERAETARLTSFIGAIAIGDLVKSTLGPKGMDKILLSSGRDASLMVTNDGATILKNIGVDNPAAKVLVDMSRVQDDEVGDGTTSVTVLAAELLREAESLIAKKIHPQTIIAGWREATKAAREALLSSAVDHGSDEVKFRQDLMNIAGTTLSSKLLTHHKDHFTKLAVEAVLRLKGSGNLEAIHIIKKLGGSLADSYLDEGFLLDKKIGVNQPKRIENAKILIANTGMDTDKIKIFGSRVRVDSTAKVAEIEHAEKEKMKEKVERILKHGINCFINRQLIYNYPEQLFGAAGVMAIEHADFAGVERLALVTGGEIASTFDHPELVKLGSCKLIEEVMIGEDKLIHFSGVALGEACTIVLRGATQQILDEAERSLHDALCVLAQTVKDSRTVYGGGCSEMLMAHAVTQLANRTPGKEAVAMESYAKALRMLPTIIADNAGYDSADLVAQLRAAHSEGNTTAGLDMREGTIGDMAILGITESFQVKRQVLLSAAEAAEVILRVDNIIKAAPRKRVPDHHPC

[16] = target: PF-7802-labelled proteins in ARPE-19 cells (Homo sapiens, UniProt Q01813); conditions: protein PFKP 6-phosphofructokinase type C (Q01813); replicates in separate columns
[17] = target: PF-7802-labelled proteins in ARPE-19 cells (Homo sapiens, UniProt Q13243); conditions: SRSF5 Serine/arginine-rich splicing factor 5 (Q13243)
[18] = target: PF-7802-labelled proteins in ARPE-19 cells (Homo sapiens, UniProt Q16790); conditions: protein CA9 Carbonic anhydrase 9 (Q16790)
[19] = target: PF-7802-labelled proteins in ARPE-19 cells (Homo sapiens, UniProt Q86Y46); conditions: protein KRT73 Keratin, type II cytoskeletal 73 (Q86Y46); one column per replicate
[20] = target: PF-7802-labelled proteins in ARPE-19 cells (Homo sapiens, UniProt Q99439); conditions: protein CNN2 Calponin-2 (Q99439)

UniProt P46940, sequence (P46940 whole entry): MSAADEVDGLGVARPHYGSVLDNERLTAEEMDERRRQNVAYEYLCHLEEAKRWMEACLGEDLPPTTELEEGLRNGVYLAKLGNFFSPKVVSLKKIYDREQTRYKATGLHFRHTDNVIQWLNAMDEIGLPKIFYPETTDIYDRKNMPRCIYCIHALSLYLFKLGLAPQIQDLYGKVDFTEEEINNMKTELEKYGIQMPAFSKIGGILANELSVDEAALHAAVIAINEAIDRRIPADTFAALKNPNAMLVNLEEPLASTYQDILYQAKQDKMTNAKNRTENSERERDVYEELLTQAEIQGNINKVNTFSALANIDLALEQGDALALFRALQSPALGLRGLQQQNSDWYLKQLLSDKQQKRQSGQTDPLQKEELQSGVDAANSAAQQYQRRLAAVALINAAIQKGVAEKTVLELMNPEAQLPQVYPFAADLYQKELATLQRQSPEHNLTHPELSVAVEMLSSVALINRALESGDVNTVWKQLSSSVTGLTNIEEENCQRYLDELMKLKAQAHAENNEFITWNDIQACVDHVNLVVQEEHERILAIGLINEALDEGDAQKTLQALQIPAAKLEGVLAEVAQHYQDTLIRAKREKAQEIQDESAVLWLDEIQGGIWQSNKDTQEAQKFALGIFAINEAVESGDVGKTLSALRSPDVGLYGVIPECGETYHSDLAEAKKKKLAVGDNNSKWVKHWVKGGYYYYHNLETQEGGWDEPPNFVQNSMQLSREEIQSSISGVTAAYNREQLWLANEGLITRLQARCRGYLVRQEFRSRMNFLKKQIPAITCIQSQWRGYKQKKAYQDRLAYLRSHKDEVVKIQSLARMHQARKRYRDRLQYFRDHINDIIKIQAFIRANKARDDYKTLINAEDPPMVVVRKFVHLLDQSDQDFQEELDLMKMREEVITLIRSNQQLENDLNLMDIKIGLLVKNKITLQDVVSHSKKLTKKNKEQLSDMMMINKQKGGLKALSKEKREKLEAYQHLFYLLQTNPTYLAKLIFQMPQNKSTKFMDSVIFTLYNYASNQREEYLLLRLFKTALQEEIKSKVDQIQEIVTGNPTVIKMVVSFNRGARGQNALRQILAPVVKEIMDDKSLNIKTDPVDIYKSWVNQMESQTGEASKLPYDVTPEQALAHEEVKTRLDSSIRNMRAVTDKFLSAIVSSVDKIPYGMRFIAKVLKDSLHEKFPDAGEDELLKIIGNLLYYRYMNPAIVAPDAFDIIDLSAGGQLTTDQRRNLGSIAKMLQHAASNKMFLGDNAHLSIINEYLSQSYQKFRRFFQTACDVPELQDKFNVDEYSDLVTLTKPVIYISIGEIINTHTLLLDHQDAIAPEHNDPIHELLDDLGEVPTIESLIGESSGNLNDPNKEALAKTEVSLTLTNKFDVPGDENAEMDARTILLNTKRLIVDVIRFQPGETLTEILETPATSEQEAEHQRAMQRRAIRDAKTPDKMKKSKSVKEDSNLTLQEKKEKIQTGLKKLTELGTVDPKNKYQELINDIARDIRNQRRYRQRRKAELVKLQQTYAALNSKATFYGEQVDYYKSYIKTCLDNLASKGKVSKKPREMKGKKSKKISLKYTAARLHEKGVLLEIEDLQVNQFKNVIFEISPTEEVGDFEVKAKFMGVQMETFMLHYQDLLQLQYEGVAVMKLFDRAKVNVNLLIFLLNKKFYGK
UniProt P09382, sequence (P09382 whole entry): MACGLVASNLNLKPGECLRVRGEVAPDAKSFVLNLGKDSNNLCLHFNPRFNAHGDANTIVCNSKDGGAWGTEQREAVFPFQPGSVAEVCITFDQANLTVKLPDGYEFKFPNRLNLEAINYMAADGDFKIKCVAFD
UniProt P62834, sequence (P62834 whole entry): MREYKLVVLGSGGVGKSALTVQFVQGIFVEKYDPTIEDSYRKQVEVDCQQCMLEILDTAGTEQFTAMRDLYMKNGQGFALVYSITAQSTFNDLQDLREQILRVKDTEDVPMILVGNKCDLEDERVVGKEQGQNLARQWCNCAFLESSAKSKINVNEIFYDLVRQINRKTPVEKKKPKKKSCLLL
UniProt P12956, sequence (P12956 whole entry): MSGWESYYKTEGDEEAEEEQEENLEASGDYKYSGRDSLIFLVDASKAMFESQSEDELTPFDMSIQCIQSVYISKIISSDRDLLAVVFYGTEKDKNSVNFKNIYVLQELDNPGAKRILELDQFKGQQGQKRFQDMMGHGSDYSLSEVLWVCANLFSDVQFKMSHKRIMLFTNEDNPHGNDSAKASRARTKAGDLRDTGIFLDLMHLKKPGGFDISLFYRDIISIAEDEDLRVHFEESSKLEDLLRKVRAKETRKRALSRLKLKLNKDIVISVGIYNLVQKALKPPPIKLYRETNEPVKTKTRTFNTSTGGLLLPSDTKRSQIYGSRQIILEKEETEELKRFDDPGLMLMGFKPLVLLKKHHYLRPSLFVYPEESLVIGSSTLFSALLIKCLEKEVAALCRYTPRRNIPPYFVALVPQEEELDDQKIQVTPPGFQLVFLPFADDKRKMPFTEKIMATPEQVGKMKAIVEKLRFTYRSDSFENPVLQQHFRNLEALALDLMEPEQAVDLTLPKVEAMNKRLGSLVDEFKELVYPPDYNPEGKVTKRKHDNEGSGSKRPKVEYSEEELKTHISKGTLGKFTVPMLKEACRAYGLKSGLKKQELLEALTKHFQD
UniProt O00159, sequence (O00159 whole entry): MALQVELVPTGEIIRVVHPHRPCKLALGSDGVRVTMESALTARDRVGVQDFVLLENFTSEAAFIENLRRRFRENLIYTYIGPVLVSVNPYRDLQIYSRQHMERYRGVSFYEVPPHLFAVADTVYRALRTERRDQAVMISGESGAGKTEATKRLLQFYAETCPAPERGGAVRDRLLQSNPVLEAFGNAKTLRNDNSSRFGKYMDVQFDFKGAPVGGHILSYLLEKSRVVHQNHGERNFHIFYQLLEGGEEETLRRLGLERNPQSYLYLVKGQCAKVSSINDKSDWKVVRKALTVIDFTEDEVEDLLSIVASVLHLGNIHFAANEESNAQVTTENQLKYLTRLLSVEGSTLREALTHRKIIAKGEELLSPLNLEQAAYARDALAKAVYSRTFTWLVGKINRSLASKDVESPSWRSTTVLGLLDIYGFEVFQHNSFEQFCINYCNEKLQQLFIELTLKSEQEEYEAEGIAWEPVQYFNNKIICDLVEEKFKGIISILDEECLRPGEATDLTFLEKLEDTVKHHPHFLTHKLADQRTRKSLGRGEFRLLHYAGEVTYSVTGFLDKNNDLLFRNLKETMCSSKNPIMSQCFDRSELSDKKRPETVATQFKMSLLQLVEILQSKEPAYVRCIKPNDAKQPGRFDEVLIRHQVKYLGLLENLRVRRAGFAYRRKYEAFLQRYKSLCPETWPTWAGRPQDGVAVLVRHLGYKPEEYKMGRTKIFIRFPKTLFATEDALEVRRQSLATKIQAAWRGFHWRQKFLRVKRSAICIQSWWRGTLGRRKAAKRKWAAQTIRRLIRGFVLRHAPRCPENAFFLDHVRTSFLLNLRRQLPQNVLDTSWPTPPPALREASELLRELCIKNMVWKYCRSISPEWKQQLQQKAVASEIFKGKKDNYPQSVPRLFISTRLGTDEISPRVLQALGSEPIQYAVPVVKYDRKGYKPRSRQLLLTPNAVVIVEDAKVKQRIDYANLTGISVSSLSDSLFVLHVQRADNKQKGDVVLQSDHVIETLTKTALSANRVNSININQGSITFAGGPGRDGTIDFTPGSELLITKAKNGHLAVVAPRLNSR
UniProt Q01813, sequence (Q01813 whole entry): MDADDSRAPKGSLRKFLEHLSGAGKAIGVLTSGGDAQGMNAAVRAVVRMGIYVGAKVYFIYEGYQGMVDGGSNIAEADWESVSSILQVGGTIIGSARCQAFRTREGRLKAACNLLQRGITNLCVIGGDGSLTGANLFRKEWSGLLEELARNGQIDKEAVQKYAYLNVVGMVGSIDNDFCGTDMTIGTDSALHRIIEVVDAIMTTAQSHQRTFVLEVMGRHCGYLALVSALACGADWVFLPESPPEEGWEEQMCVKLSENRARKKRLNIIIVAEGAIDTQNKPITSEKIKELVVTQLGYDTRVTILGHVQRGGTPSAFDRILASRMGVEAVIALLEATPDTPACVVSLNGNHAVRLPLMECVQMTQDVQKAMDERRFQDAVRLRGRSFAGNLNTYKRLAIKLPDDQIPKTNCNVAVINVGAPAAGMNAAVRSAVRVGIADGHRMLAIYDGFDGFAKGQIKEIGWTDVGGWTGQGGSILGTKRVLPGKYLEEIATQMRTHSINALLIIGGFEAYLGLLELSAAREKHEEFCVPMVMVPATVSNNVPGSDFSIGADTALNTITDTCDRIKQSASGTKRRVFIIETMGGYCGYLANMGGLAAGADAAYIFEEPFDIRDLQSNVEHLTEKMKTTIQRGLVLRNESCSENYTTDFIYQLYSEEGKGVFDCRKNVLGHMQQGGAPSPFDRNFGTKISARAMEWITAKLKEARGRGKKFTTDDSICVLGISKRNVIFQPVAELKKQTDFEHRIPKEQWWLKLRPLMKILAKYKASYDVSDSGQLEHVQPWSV
UniProt P30559, sequence (P30559 whole entry): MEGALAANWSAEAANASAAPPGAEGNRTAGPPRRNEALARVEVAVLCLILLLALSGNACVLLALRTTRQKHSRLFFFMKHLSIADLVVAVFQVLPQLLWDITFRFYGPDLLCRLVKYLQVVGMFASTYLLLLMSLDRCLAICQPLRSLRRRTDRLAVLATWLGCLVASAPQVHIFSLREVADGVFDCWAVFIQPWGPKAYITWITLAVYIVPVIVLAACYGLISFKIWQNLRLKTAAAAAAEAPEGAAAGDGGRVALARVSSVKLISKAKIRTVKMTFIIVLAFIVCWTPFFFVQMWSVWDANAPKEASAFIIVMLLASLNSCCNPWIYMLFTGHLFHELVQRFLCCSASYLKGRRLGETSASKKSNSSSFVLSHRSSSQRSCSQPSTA

Row | SMILES | Median SILAC Ratio (Heavy/Light) [1] | Median SILAC Ratio (Heavy/Light) [2] | Median SILAC Ratio (Heavy/Light) [3] | Median SILAC Ratio (Heavy/Light) [4] | Median SILAC Ratio (Heavy/Light) ([5]; replicate R1) | Median SILAC Ratio (Heavy/Light) [6] | Median SILAC Ratio (Heavy/Light) [7] | Median SILAC Ratio (Heavy/Light) [8] | Median SILAC Ratio (Heavy/Light) [10] | Median SILAC Ratio (Heavy/Light) [11] | Median SILAC Ratio (Heavy/Light) [12] | Median SILAC Ratio (Heavy/Light) [14] | Median SILAC Ratio (Heavy/Light) [15] | Median SILAC Ratio (Heavy/Light) [16] | Median SILAC Ratio (Heavy/Light) [17] | Median SILAC Ratio (Heavy/Light) [18] | Median SILAC Ratio (Heavy/Light) [19] | Median SILAC Ratio (Heavy/Light) [20] | other results
1 | CNC1CCN(C(=O)C[C@@H](Cc2ccccc2)C(=O)N[C@@H](CSC)C(=O)N[C@@H](CC2CCCCC2)[C@@H](O)C(=O)OC(C)C)CC1 [CP-108671, reference compound] | 1.165 | 9.803 | 0.9189 | 1.421 | 1.117 | 1.007 | 1.313 | 1.115 | 1.433 | 1.525 | 0.8931 | 1.024 | 1.5001 | 2.393 | 0.63 | 1.257 | 9.803 | 1.321 | SILAC ratio (DMSO/CP-108671) ([1]; O00159 MYO1C Unconventional myosin-Ic): 0.86; SILAC ratio (DMSO/CP-108671) ([5]; P12956 XRCC6 X-ray repair cross-complementing protein 6): 0.90; Median SILAC Ratio (Heavy/Light) ([9]; protein OXTR Oxytocin receptor (P30559)): 1.084; SILAC ratio (DMSO/CP-108671) ([11]; P46940 IQGAP1 Ras GTPase-activating-like protein IQGAP1): 0.66; SILAC ratio (DMSO/CP-108671) ([13]; P62258 YWHAE 14-3-3 protein epsilon): 0.50; Median SILAC Ratio (Heavy/Light) ([13]; replicate R1): 2.0134; SILAC ratio (DMSO/CP-108671) ([15]; P78371 CCT2 T-complex protein 1 subunit beta): 0.67
2 | Cc1cc([C@H]2C[C@H]3[C@@H](C)SC(N)=N[C@@]3(c3ccc(F)cc3F)CO2)on1 [PF-9283] | 1.3405 and 0.8231 | 0.8663 | 0.7965 and 1.316 and 1.9 | 1.1285 | 1.844 | 1.309 | 1.203 | 1.292 and 1.34 | 1.235 | 1.659 and 1.525 | 1.372 | 1.132 and 0.6485 | 1.3273 | 2.073 and 1.995 | 0.633 | 1.513 | 4.51 | 0.4558 | Median SILAC Ratio (Heavy/Light) ([5]; replicate R2): 0.8081; Median SILAC Ratio (Heavy/Light) ([9]; […]): 1.536; Median SILAC Ratio (Heavy/Light) ([13]; replicate R3): 1.225
